Screen size: about 3,200 compounds; about 110 (3.4%) showed an effect of 50% or more. The list shows a part of the results.
Test system: T1, V. cholerae SAD30
T1 construct: SAD30
Parameters: species or system S. aureus MSSA476 (TSB) or V. cholerae SAD30 (LB); 384-well bacterial growth screen at 25 uM, OD600 relative to DMSO control
Conditions: relative growth, OD600, LB; 25 µM; inhibitor

SMILES | % of control remaining
C=CC(=O)NCCC(=O)N1CCC(c2ncccn2)CC1 [3-M17, N-{3-oxo-3-[4-(pyrimidin-2-yl)piperidin-1-yl]propyl}prop-2-enamide] | 97.03%
CCN(c1ccc(NC(=O)CCl)cc1)C(C)C.Cl [5-J08, 2-chloro-N-{4-[ethyl(propan-2-yl)amino]phenyl}acetamide hydrochloride] | 95.4923%
N#CC(C(=O)CCl)=C1NC(C23CC4CC(CC(C4)C2)C3)=CS1 [10-F14, 2-[4-(adamantan-1-yl)-2,3-dihydro-1,3-thiazol-2-ylidene]-4-chloro-3-oxobutanenitrile] | 68.7317%
Cc1noc(CC(NC(=O)CCl)c2ccccc2)n1 (stereo not drawn) [5-E04, 2-chloro-N-[2-(3-methyl-1,2,4-oxadiazol-5-yl)-1-phenylethyl]acetamide] | 98.8547%
CC1CCCC(NC(=O)C(C#N)=Cc2ccccc2)C1C (stereo not drawn) [8-C19, 2-cyano-N-(2,3-dimethylcyclohexyl)-3-phenylprop-2-enamide] | 69.6805%
Cc1cccc(Cc2cnc(NC(=O)CCl)s2)c1 [4-B09, 2-chloro-N-{5-[(3-methylphenyl)methyl]-1,3-thiazol-2-yl}acetamide] | 87.6429%
N#CC(=Cc1c(Cl)cccc1Cl)C(=O)Nc1nccs1 [8-P09, 2-cyano-3-(2,6-dichlorophenyl)-N-(1,3-thiazol-2-yl)prop-2-enamide] | 77.9742%
CC(Cl)C(=O)NCc1nc(N(C)C)no1 (stereo not drawn) [7-A04, 2-chloro-N-{[3-(dimethylamino)-1,2,4-oxadiazol-5-yl]methyl}propanamide] | 91.9874%
Cc1cccc(-n2c(C)cc(C(=O)CCl)c2C)c1 [10-A22, 2-chloro-1-[2,5-dimethyl-1-(3-methylphenyl)-1H-pyrrol-3-yl]ethan-1-one] | 108.163%
Cc1ncsc1C=C(C#N)C(=O)Nc1ccc(C(=O)N(C)C)cc1 [9-J16, 4-[2-cyano-3-(4-methyl-1,3-thiazol-5-yl)prop-2-enamido]-N,N-dimethylbenzamide] | 93.8817%
C=CC(=O)N(c1cc(C)ccc1C#N)C(C)C [2-A22, N-(2-cyano-5-methylphenyl)-N-(propan-2-yl)prop-2-enamide] | 111.811%
CC(=O)N1c2ccc(C(=O)CCl)cc2CC1C (stereo not drawn) [10-I20, 1-(1-acetyl-2-methyl-2,3-dihydro-1H-indol-5-yl)-2-chloroethan-1-one] | 84.473%
O=C(CCl)NC(c1ccc(F)cc1)C1CCCC1 (stereo not drawn) [6-K08, 2-chloro-N-[cyclopentyl(4-fluorophenyl)methyl]acetamide] | 80.0834%
O=C(CCl)NCC(F)(F)c1cc(-c2ccccc2)n[nH]1 [7-P20, 2-chloro-N-[2,2-difluoro-2-(3-phenyl-1H-pyrazol-5-yl)ethyl]acetamide] | 97.4062%
O=C(CCl)N1N=C(c2ccccc2)CC1c1ccccc1 (stereo not drawn) [4-I20, 2-chloro-1-(3,5-diphenyl-4,5-dihydro-1H-pyrazol-1-yl)ethan-1-one] | 103.343%
C=CC(=O)N1CCN(CC(=O)NC)CC1 [1-F03, N-methyl-2-[4-(prop-2-enoyl)piperazin-1-yl]acetamide] | 104.634%
O=C(CCl)Nc1ccc(Oc2ccccc2)cc1 [4-J09, 2-chloro-N-(4-phenoxyphenyl)acetamide] | 97.6493%
COC(=O)C(C(=O)CCl)=C1Nc2ccccc2N1 [10-G12, methyl 4-chloro-2-(2,3-dihydro-1H-1,3-benzodiazol-2-ylidene)-3-oxobutanoate] | 96.6297%
O=C(CCl)N(Cc1ccc(Cl)cc1)C12CC3CC(CC(C3)C1)C2 [4-H07, N-(adamantan-1-yl)-2-chloro-N-[(4-chlorophenyl)methyl]acetamide] | 55.3806%
CC(=O)NCCc1ccc(C(=O)C(C)Cl)cc1 (stereo not drawn) [10-B03, N-{2-[4-(2-chloropropanoyl)phenyl]ethyl}acetamide] | 104.734%
C=CC(=O)N1CCC(C(=O)N2CCCC(NC(=O)C(C)(C)C)C2)CC1 (stereo not drawn) [2-F05, 2,2-dimethyl-N-{1-[1-(prop-2-enoyl)piperidine-4-carbonyl]piperidin-3-yl}propanamide] | 96.2173%
C=CC(=O)N(Cc1noc2c1CCCC2)CC1CCCC1 [1-H13, N-(cyclopentylmethyl)-N-[(4,5,6,7-tetrahydro-1,2-benzoxazol-3-yl)methyl]prop-2-enamide] | 77.728%
CNC(=O)Cn1ccc2ccc(NC(=O)C(C#N)=Cc3ccco3)cc21 [9-F18, 2-cyano-3-(furan-2-yl)-N-{1-[(methylcarbamoyl)methyl]-1H-indol-6-yl}prop-2-enamide] | 82.8688%

SMILES | % of control remaining
N#CC(=Cc1ccc(SC(F)(F)F)cc1)C(=O)NC1CC1 [9-C14, 2-cyano-N-cyclopropyl-3-{4-[(trifluoromethyl)sulfanyl]phenyl}prop-2-enamide] | 74.5751%
CC(=O)Nc1ccc(C=C(C#N)C(=O)NC2CCCCC2)cc1 [8-N16, 2-cyano-N-cyclohexyl-3-(4-acetamidophenyl)prop-2-enamide] | 72.5357%
O=C(CCl)NCCSc1ccc(Cl)cc1 [4-H17, 2-chloro-N-{2-[(4-chlorophenyl)sulfanyl]ethyl}acetamide] | 99.8922%
O=C(CCl)N1CCSc2c([nH]c3ccccc23)C1 [6-F08, 2-chloro-1-{2H,3H,4H,5H,6H-[1,4]thiazepino[6,7-b]indol-4-yl}ethan-1-one] | 87.8188%
C=CC(=O)N(C)Cc1cc2sccc2n1C [2-B19, N-methyl-N-({4-methyl-4H-thieno[3,2-b]pyrrol-5-yl}methyl)prop-2-enamide] | 92.203%
CC(Cl)C(=O)N1CCCC1c1nc(-c2ccccc2)c(C(C)C)o1 (stereo not drawn) [7-H11, 2-chloro-1-{2-[4-phenyl-5-(propan-2-yl)-1,3-oxazol-2-yl]pyrrolidin-1-yl}propan-1-one] | 73.8807%
Cn1ncc2ccc(CNC(=O)N3CCSSCC3)cc21 [10-A20, N-[(1-methyl-1H-indazol-6-yl)methyl]-1,2,5-dithiazepane-5-carboxamide] | 103.799%
C=CC(=O)NC(c1nc(C)cs1)C1CC1 (stereo not drawn) [3-D21, N-[cyclopropyl(4-methyl-1,3-thiazol-2-yl)methyl]prop-2-enamide] | 100.912%
Cc1ccc(CNC(=O)c2ccccc2NC(=O)CCl)cc1 [4-H21, 2-(2-chloroacetamido)-N-[(4-methylphenyl)methyl]benzamide] | 106.966%
N#Cc1c(NC(=O)CCl)oc(-c2ccco2)c1-c1ccco1 [5-D10, 2-chloro-N-[4'-cyano-2'-(furan-2-yl)-[2,3'-bifuran]-5'-yl]acetamide] | 75.8222%
CC(Cl)C(=O)Nc1cccc(C#N)c1 (stereo not drawn) [5-B10, 2-chloro-N-(3-cyanophenyl)propanamide] | 95.8285%
O=C(CCl)Nc1ccc2oc3ccccc3c2c1 [6-N06, 2-chloro-N-{8-oxatricyclo[7.4.0.0,2,7]trideca-1(9),2(7),3,5,10,12-hexaen-4-yl}acetamide] | 89.1838%
CC(Cl)C(=O)Nc1ccc(C2CC(=O)NC(=O)N2)cc1 (stereo not drawn) [5-D19, 2-chloro-N-[4-(2,6-dioxo-1,3-diazinan-4-yl)phenyl]propanamide] | 97.5097%
C=CC(=O)N1CCC(c2ccc(OC)cc2)C1 (stereo not drawn) [1-N16, 1-[3-(4-methoxyphenyl)pyrrolidin-1-yl]prop-2-en-1-one] | 95.1914%
COC1(OC)CCOCC1NC(=O)CCl (stereo not drawn) [7-D10, 2-chloro-N-(4,4-dimethoxyoxan-3-yl)acetamide] | 84.5862%
CC(Cl)C(=O)N1C2CCC1CC(c1ccnn1C)C2 (stereo not drawn) [7-O15, 2-chloro-1-[3-(1-methyl-1H-pyrazol-5-yl)-8-azabicyclo[3.2.1]octan-8-yl]propan-1-one] | 78.2422%
CC(Cl)C(=O)NC1CCCCC1n1cccn1 (stereo not drawn) [7-F17, 2-chloro-N-[2-(1H-pyrazol-1-yl)cyclohexyl]propanamide] | 75.731%
COc1ccc(CN(C)C(=O)CCl)cc1F [4-F03, 2-chloro-N-[(3-fluoro-4-methoxyphenyl)methyl]-N-methylacetamide] | 110.244%
C=CC(=O)N1CCCn2cccc2C12CCOCC2 [1-A22, 1-{2',3',4',5'-tetrahydrospiro[oxane-4,1'-pyrrolo[1,2-a][1,4]diazepin]-2'-yl}prop-2-en-1-one] | 107.922%
C=CC(=O)Nc1cccc(NS(=O)(=O)C2CC2)c1 [3-D16, N-(3-cyclopropanesulfonamidophenyl)prop-2-enamide] | 95.6185%
C=CC(=O)N1CCC(c2nc(C(=O)O)co2)CC1 [2-K03, 2-[1-(prop-2-enoyl)piperidin-4-yl]-1,3-oxazole-4-carboxylic acid] | 108.723%
CSc1cccc(NC(=O)CCl)c1 [4-H10, 2-chloro-N-[3-(methylsulfanyl)phenyl]acetamide] | 90.9209%
